Experimental data from publication PMC9911399, “Two distinct binding modes provide the RNA-binding protein RbFox with extraordinary sequence specificity”.
Substitutions are numbered along the chain they refer to; changes in the protein carry UniProt numbers. The list shows a part of the results.

T1: RBFOX1 RRM RbFoxmut (Fox-RRM*) (Homo sapiens, UniProt Q9NWB1 109-208, R118D;E147R;N151S;E152T)
T1 sequence: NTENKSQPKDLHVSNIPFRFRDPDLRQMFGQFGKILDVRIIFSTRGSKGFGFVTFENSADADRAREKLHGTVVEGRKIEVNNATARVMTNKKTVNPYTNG

B1: GGCACAC (DNA:RNA)
RNA: GGGAGACCGGAAUUCAGAUUGUCCGGCACACUUAAAUCCCGUCGUAGCCACCA
DNA 1: CAATCTGAATTCCGGTCTCCC
DNA 2: TGGTGGCTACGACGGGATT
B2: CGGCCCA (DNA:RNA)
RNA: B1 RNA with G25C, C27G, A28C, A30C, C31A
DNA 1: CAATCTGAATTCCGGTCTCCC
DNA 2: TGGTGGCTACGACGGGATT
B3: GGUACCU (DNA:RNA)
RNA: B1 RNA with C27U, A30C, C31U
DNA 1: CAATCTGAATTCCGGTCTCCC
DNA 2: TGGTGGCTACGACGGGATT
B4: CUUUAGU (DNA:RNA)
RNA: GGGAGACCGGAAUUCAGAUUGUCCCUUUAGUUUAAAUCCCGUCGUAGCCACCA
DNA 1: CAATCTGAATTCCGGTCTCCC
DNA 2: TGGTGGCTACGACGGGATT
B5: AGCCAAG (DNA:RNA)
RNA: B1 RNA with G25A, A28C, C29A, C31G
DNA 1: CAATCTGAATTCCGGTCTCCC
DNA 2: TGGTGGCTACGACGGGATT
B6: UAUCGGU (DNA:RNA)
RNA: B4 RNA with C25U, U26A, U28C, A29G
DNA 1: CAATCTGAATTCCGGTCTCCC
DNA 2: TGGTGGCTACGACGGGATT
B7: UCCGAUC (DNA:RNA)
RNA: B1 RNA with G25U, G26C, A28G, C29A, A30U
DNA 1: CAATCTGAATTCCGGTCTCCC
DNA 2: TGGTGGCTACGACGGGATT
B8: AGGAGUU (DNA:RNA)
RNA: B1 RNA with G25A, C27G, C29G, A30U, C31U
DNA 1: CAATCTGAATTCCGGTCTCCC
DNA 2: TGGTGGCTACGACGGGATT
B9: UUAGUGU (DNA:RNA)
RNA: B4 RNA with C25U, U27A, U28G, A29U
DNA 1: CAATCTGAATTCCGGTCTCCC
DNA 2: TGGTGGCTACGACGGGATT
B10: CGCUGUC (DNA:RNA)
RNA: B1 RNA with G25C, A28U, C29G, A30U
DNA 1: CAATCTGAATTCCGGTCTCCC
DNA 2: TGGTGGCTACGACGGGATT
B11: CGGUAAA (DNA:RNA)
RNA: B4 RNA with U26G, U27G, G30A, U31A
DNA 1: CAATCTGAATTCCGGTCTCCC
DNA 2: TGGTGGCTACGACGGGATT
B12: UGACGCG (DNA:RNA)
RNA: B1 RNA with G25U, C27A, A28C, C29G, A30C, C31G
DNA 1: CAATCTGAATTCCGGTCTCCC
DNA 2: TGGTGGCTACGACGGGATT
B13: GCCGCCU (DNA:RNA)
RNA: B1 RNA with G26C, A28G, A30C, C31U
DNA 1: CAATCTGAATTCCGGTCTCCC
DNA 2: TGGTGGCTACGACGGGATT
B14: CUAAUCG (DNA:RNA)
RNA: B4 RNA with U27A, U28A, A29U, G30C, U31G
DNA 1: CAATCTGAATTCCGGTCTCCC
DNA 2: TGGTGGCTACGACGGGATT
B15: UGGUCAU (DNA:RNA)
RNA: B1 RNA with G25U, C27G, A28U, C31U
DNA 1: CAATCTGAATTCCGGTCTCCC
DNA 2: TGGTGGCTACGACGGGATT
B16: UAAAAUU (DNA:RNA)
RNA: B4 RNA with C25U, U26A, U27A, U28A, G30U
DNA 1: CAATCTGAATTCCGGTCTCCC
DNA 2: TGGTGGCTACGACGGGATT
B17: CCCAUAG (DNA:RNA)
RNA: B1 RNA with G25C, G26C, C29U, C31G
DNA 1: CAATCTGAATTCCGGTCTCCC
DNA 2: TGGTGGCTACGACGGGATT
B18: GCUCCGC (DNA:RNA)
RNA: B1 RNA with G26C, C27U, A28C, A30G
DNA 1: CAATCTGAATTCCGGTCTCCC
DNA 2: TGGTGGCTACGACGGGATT
B19: GCAUAAA (DNA:RNA)
RNA: B4 RNA with C25G, U26C, U27A, G30A, U31A
DNA 1: CAATCTGAATTCCGGTCTCCC
DNA 2: TGGTGGCTACGACGGGATT
B20: GCCCCGC (DNA:RNA)
RNA: B1 RNA with G26C, A28C, A30G
DNA 1: CAATCTGAATTCCGGTCTCCC
DNA 2: TGGTGGCTACGACGGGATT

biological target: T1, RBFOX1 RRM RbFoxmut (Fox-RRM*); test: EMSA; HiTS-Eq, 1 nM pool, 10 min; buffer printed only for the single-RNA assays: 10 mM Tris pH 7.5, 150 mM NaCl, 3.4 mM EDTA, 0.001% NP-40, 30 C; settings: tags: His6 N-terminal (pET28a); label: 5' 32P
Procedure, shortened: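 Relative association constants, normalised to the cognate motif, were derived by comparing read counts of each RNA species with those of the control reaction. The RNA sequenced was the free fraction, separated by 8% native PAGE after a 10 min equilibration in 50 µL of 1 nM 5′-radiolabelled RNA (7 randomized nucleotides) with increasing concentrations of purified wild-type or mutant RbFox RRM.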

| Binder | binding signal |
| --- | --- |
| B1 | 0.0968 KA relative to UGCAUGU |
| B2 | 0.058 KA relative to UGCAUGU |
| B3 | 0.0791 KA relative to UGCAUGU |
| B4 | 0.144 KA relative to UGCAUGU |
| B5 | 0.102 KA relative to UGCAUGU |
| B6 | 0.12 KA relative to UGCAUGU |
| B7 | 0.0412 KA relative to UGCAUGU |
| B8 | 0.122 KA relative to UGCAUGU |
| B9 | 0.166 KA relative to UGCAUGU |
| B10 | 0.263 KA relative to UGCAUGU |
| B11 | 0.0781 KA relative to UGCAUGU |
| B12 | 0.131 KA relative to UGCAUGU |
| B13 | 0.076 KA relative to UGCAUGU |
| B14 | 0.0487 KA relative to UGCAUGU |
| B15 | 0.0965 KA relative to UGCAUGU |
| B16 | 0.065 KA relative to UGCAUGU |
| B17 | 0.141 KA relative to UGCAUGU |
| B18 | 0.0718 KA relative to UGCAUGU |
| B19 | 0.144 KA relative to UGCAUGU |
| B20 | 0.081 KA relative to UGCAUGU |
